# The supplement of paper PMC12217912
# The other results are listed elsewhere or left out. The full chains were built here from the parent and the listed change. Values near 0.05 are background.
# B1: TEV protease; numbered along this chain (parent)
# chain: MGESLFKGPRDYNPISSSICHLTNESDGHTTSLYGIGFGPFIITNKHLFRRNNGTLVVQSLHGVFKVKDTTTLQQHLVDGRDMIIIRMPKDFPPFPQKLKFREPQREERICLVTTNFQTKSMSSMVSDTSCTFPSGDGIFWKHWIQTKDGQCGSPLVSTRDGFIVGIHSASNFTNTNNYFTSVPKNFMELLTNQEAQQWVSGWRLNADSVLWGGHKVFMVKPEEPFQPVKEATQL
# Variants of: B1
# Experiment: raw area under fraction-flipped curve 0-4 h after induction (AUC4h, not background-subtracted), DNA-recorder readout of cleavage of the substrate (dimensionless); higher = more cleavage of the substrate by the protease variant
# Conditions: temperature: 34 °C; time window: 0-4 h after rhamnose induction
# 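Also: Bxb1 expression induced with 0.2% (w/v) L-rhamnose at OD600 near 0.5, cultures sampled hourly, flipped fraction per protease–substrate barcode pair counted by paired-end Illumina sequencing.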
Variant,area with substrate ENLYDQS,area with substrate ENLYEQS,area with substrate ENLYGQS,area with substrate ENLYHQS,area with substrate ENLYIQS,area with substrate ENLYKQS,area with substrate ENLYLQS,area with substrate ENLYMQS,area with substrate ENLYNQS,area with substrate ENLYPQS,area with substrate ENLYQQS,area with substrate ENLYRQS,area with substrate ENLYSQS,area with substrate ENLYTQS,area with substrate ENLYVQS,area with substrate ENLYYQS,area with substrate ENLYWQS
MGESLFKGPRDYNPISSSICHLTNESDGHTTSLYGIGFGPFIITNKHLFRRNNGTLVVQSLHGVFKVKDYTTLQQHLVDGRDMIIIRMPKDFPPFPQKLKFREPQREERICLVTTNFQTKSMSSMVSDTSCTFPSGDGIFWKHWIQTKDGQCGSPLVSTRDGFIVGIHSASNFTNTNNYFTSVPKNFMELLTNQEAQQWVSGWRLNADSVLWGGHKVFMVKPEEPFQPVKEATQL [T70Y],0.0542,0.0562,0.0574,0.0603,0.0927,0.0708,0.0649,0.0464,0.0668,0.0263,0.0787,0.0639,0.0712,0.0717,0.0777,–,–
MGESLFKGPRDYNPISSSICHLTNESDGHTTSLYGIGFGPFIITNKHLFRRNNGTLVVQSLHGVFKVKDTMTLQQHLVDGRDMIIIRMPKDFPPFPQKLKFREPQREERICLVTTNFQTKSMSSMVSDTSCTFPSGDGIFWKHWIQTKDGQCGSPLVSTRDGFIVGIHSASNFTNTNNYFTSVPKNFMELLTNQEAQQWVSGWRLNADSVLWGGHKVFMVKPEEPFQPVKEATQL [T71M],0.0698,0.0724,0.0881,0.0704,–,–,–,–,–,0.0496,–,–,0.0637,–,–,0.054,–
MGESLFKGPRDYNPISSSICHLTNESDGHTTSLYGIGFGPFIITNKHLFRRNNGTLVVQSLHGVFKVKDTTYLQQHLVDGRDMIIIRMPKDFPPFPQKLKFREPQREERICLVTTNFQTKSMSSMVSDTSCTFPSGDGIFWKHWIQTKDGQCGSPLVSTRDGFIVGIHSASNFTNTNNYFTSVPKNFMELLTNQEAQQWVSGWRLNADSVLWGGHKVFMVKPEEPFQPVKEATQL [T72Y],0.0534,0.0658,–,0.0783,0.124,–,0.07,0.0713,–,0.0639,–,0.0531,0.063,0.0615,0.0846,0.06,0.0671
MGESLFKGPRDYNPISSSICHLTNESDGHTTSLYGIGFGPFIITNKHLFRRNNGTLVVQSLHGVFKVKDTTTFQQHLVDGRDMIIIRMPKDFPPFPQKLKFREPQREERICLVTTNFQTKSMSSMVSDTSCTFPSGDGIFWKHWIQTKDGQCGSPLVSTRDGFIVGIHSASNFTNTNNYFTSVPKNFMELLTNQEAQQWVSGWRLNADSVLWGGHKVFMVKPEEPFQPVKEATQL [L73F],0.0671,0.065,–,0.0597,–,0.0217,–,0.0638,0.0667,0.0594,–,0.07,–,0.054,0.0562,–,–
MGESLFKGPRDYNPISSSICHLTNESDGHTTSLYGIGFGPFIITNKHLFRRNNGTLVVQSLHGVFKVKDTTTLQQHLVDGREMIIIRMPKDFPPFPQKLKFREPQREERICLVTTNFQTKSMSSMVSDTSCTFPSGDGIFWKHWIQTKDGQCGSPLVSTRDGFIVGIHSASNFTNTNNYFTSVPKNFMELLTNQEAQQWVSGWRLNADSVLWGGHKVFMVKPEEPFQPVKEATQL [D82E],0.0583,0.0642,0.059,0.0608,–,–,–,0.065,0.048,0.058,0.046,0.0892,0.0621,0.0573,–,0.0501,–
MGESLFKGPRDYNPISSSICHLTNESDGHTTSLYGIGFGPFIITNKHLFRRNNGTLVVQSLHGVFKVKDTTTLQQHLVDGRDAIIIRMPKDFPPFPQKLKFREPQREERICLVTTNFQTKSMSSMVSDTSCTFPSGDGIFWKHWIQTKDGQCGSPLVSTRDGFIVGIHSASNFTNTNNYFTSVPKNFMELLTNQEAQQWVSGWRLNADSVLWGGHKVFMVKPEEPFQPVKEATQL [M83A],0.0681,0.0444,0.0622,0.0648,–,0.064,0.0673,0.0635,0.0693,0.044,–,0.0491,0.0653,0.0751,0.0927,0.0499,–
MGESLFKGPRDYNPISSSICHLTNESDGHTTSLYGIGFGPFIITNKHLFRRNNGTLVVQSLHGVFKVKDTTTLQQHLVDGRDVIIIRMPKDFPPFPQKLKFREPQREERICLVTTNFQTKSMSSMVSDTSCTFPSGDGIFWKHWIQTKDGQCGSPLVSTRDGFIVGIHSASNFTNTNNYFTSVPKNFMELLTNQEAQQWVSGWRLNADSVLWGGHKVFMVKPEEPFQPVKEATQL [M83V],0.0585,0.0705,0.0503,0.06,–,–,–,0.0473,0.0646,–,0.0641,–,–,–,–,–,–
MGESLFKGPRDYNPISSSICHLTNESDGHTTSLYGIGFGPFIITNKHLFRRNNGTLVVQSLHGVFKVKDTTTLQQHLVDGRDYIIIRMPKDFPPFPQKLKFREPQREERICLVTTNFQTKSMSSMVSDTSCTFPSGDGIFWKHWIQTKDGQCGSPLVSTRDGFIVGIHSASNFTNTNNYFTSVPKNFMELLTNQEAQQWVSGWRLNADSVLWGGHKVFMVKPEEPFQPVKEATQL [M83Y],0.0529,0.0638,0.0615,0.0579,–,–,0.0474,–,–,0.0487,–,0.0675,–,–,–,–,–
MGESLFKGPRDYNPISSSICHLTNESDGHTTSLYGIGFGPFIITNKHLFRRNNGTLVVQSLHGVFKVKDTTTLQQHLVDGRDMIIYRMPKDFPPFPQKLKFREPQREERICLVTTNFQTKSMSSMVSDTSCTFPSGDGIFWKHWIQTKDGQCGSPLVSTRDGFIVGIHSASNFTNTNNYFTSVPKNFMELLTNQEAQQWVSGWRLNADSVLWGGHKVFMVKPEEPFQPVKEATQL [I86Y],0.0603,0.0625,0.068,0.0715,–,0.0608,–,0.0498,–,0.054,0.0619,0.0373,–,–,0.0509,0.0621,–
MGESLFKGPRDYNPISSSICHLTNESDGHTTSLYGIGFGPFIITNKHLFRRNNGTLVVQSLHGVFKVKDTTTLQQHLVDGRDMIIIRKPKDFPPFPQKLKFREPQREERICLVTTNFQTKSMSSMVSDTSCTFPSGDGIFWKHWIQTKDGQCGSPLVSTRDGFIVGIHSASNFTNTNNYFTSVPKNFMELLTNQEAQQWVSGWRLNADSVLWGGHKVFMVKPEEPFQPVKEATQL [M88K],0.0549,0.0595,–,–,–,0.054,–,–,0.0657,–,–,–,–,–,0.0659,–,0.0633
